# The other results are listed elsewhere or left out.
# Columns and labels:
# Test in all cases: glycan array binding signal (z-score within array); higher = stronger binding
# Conditions in all cases: glycan notation: IUPAC condensed, linker removed
# [1] = biological target: Neu5Ac(a2-8)Neu5Ac(a2-8)Neu5Ac(a2-3)Gal(b1-4)Glc
# Outline: (§1)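 The binding signal is a Z-score computed within each array. Data were drawn from 3228 arrays in the Consortium for Functional Glycomics database, restricted to those with a known protein sequence. Scores were averaged over arrays of the same protein sequence at different concentrations or buffers, and over linkers, and negative values can be taken as non-binding.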
# [2] = biological target: Neu5Ac(a2-8)Neu5Ac(a2-8)Neu5Ac(a2-3)[Gal(b1-3)GalNAc(b1-4)]Gal(b1-4)Glc
# Outline: as §1
# [3] = biological target: Neu5Ac(a2-8)Neu5Ac(a2-8)Neu5Ac(a2-3)[GalNAc(b1-4)]Gal(b1-4)Glc
# Outline: as §1
# [4] = biological target: Neu5Ac(a2-8)Neu5Ac(a2-8)Neu5Ac(a2-8)Neu5Ac(a2-3)[GalNAc(b1-4)]Gal(b1-4)Glc
# Outline: as §1
# [5] = biological target: Neu5Ac(a2-8)Neu5Gc(a2-3)Gal(b1-4)GlcNAc
# Outline: as §1
# [6] = biological target: Neu5Ac(b2-6)Gal(b1-4)GlcNAc
# Outline: as §1
# Neu5Ac(b2-6)GalNAc = biological target: Neu5Ac(b2-6)GalNAc
# Outline: as §1
# [7] = biological target: Neu5Ac9Ac(a2-3)Gal(b1-3)GlcNAc
# Outline: as §1
# [8] = biological target: Neu5Ac9Ac(a2-3)Gal(b1-4)GlcNAc
# Outline: as §1
# [9] = biological target: Neu5Ac9Ac(a2-6)Gal(b1-4)GlcNAc
# Outline: as §1
# [10] = biological target: Neu5Gc(a2-3)Gal(b1-3)GlcNAc
# Outline: as §1
# [11] = biological target: Neu5Gc(a2-3)Gal(b1-3)[Fuc(a1-4)]GlcNAc
# Outline: as §1
# Neu5Gc(a2-3)Gal(b1-4)Glc = biological target: Neu5Gc(a2-3)Gal(b1-4)Glc
# Outline: as §1
# [12] = biological target: Neu5Gc(a2-3)Gal(b1-4)GlcNAc
# Outline: as §1
# [13] = biological target: Neu5Gc(a2-3)Gal(b1-4)GlcNAc(b1-3)Gal(b1-4)GlcNAc(b1-2)Man(a1-3)[Neu5Gc(a2-3)Gal(b1-4)GlcNAc(b1-3)Gal(b1-4)GlcNAc(b1-2)Man(a1-6)]Man(b1-4)GlcNAc(b1-4)GlcNAc
# Outline: as §1
# [14] = biological target: Neu5Gc(a2-3)Gal(b1-4)[Fuc(a1-3)]GlcNAc
# Outline: as §1
# [15] = biological target: Neu5Gc(a2-3)Gal(b1-4)[Fuc(a1-4)]GlcNAc
# Outline: as §1
# [16] = biological target: Neu5Gc(a2-6)Gal(b1-4)GlcNAc
# Outline: as §1
# Neu5Gc(a2-6)GalNAc = biological target: Neu5Gc(a2-6)GalNAc
# Outline: as §1
# [17] = biological target: Neu5Gc(a2-8)Neu5Ac(a2-3)Gal(b1-4)GlcNAc
# Outline: as §1
# [18] = biological target: Neu5Gc(a2-8)Neu5Gc(a2-3)Gal(b1-4)GlcNAc
# Outline: as §1
# [19] = biological target: Neu5Gc(a2-8)Neu5Gc(a2-3)Gal(b1-4)GlcNAc(b1-3)Gal(b1-4)GlcNAc
# Outline: as §1
# [20] = biological target: Neu5Gc(a2-8)Neu5Gc(a2-6)Gal(b1-4)GlcNAc
# Outline: as §1
# [21] = biological target: Neu5Gc(b2-6)Gal(b1-4)GlcNAc
# Outline: as §1
binder,measurement,setting,value
"MGL1 (Mus musculus), P49300 (protein) MIYENLQNSRIEEKTQEPGKAPSQSFLWRILSWTHLLLFSLGLSLLLLVVVSVIGSQNSQLRRDLGTLRATLDNTTSKIKAEFQSLDSRADSFEKGISSLKVDVEDHRQELQAGRDLSQKVTSLESTVEKREQALKTDLSDLTDHVQQLRKDLKALTCQLANLKNNGSEVACCPLHWTEHEGSCYWFSESEKSWPEADKYCRLENSHLVVVNSLEEQNFLQNRLANVVSWIGLTDQNGPWRWVDGTDFEKGFKNWAPLQPDNWFGHGLGGGEDCAHITTGGPWNDDVCQRTFRWICEMKLAKES",glycan array binding signal (z-score),[1],-0.021
same,glycan array binding signal (z-score),[2],-0.242
same,glycan array binding signal (z-score),[3],-0.398
same,glycan array binding signal (z-score),[4],-0.116
same,glycan array binding signal (z-score),[5],-0.429
same,glycan array binding signal (z-score),[6],-0.167
same,glycan array binding signal (z-score),Neu5Ac(b2-6)GalNAc,-0.275
same,glycan array binding signal (z-score),[7],0.339
same,glycan array binding signal (z-score),[8],-0.495
same,glycan array binding signal (z-score),[9],-0.429
same,glycan array binding signal (z-score),[10],-0.578
same,glycan array binding signal (z-score),[11],-0.087
same,glycan array binding signal (z-score),Neu5Gc(a2-3)Gal(b1-4)Glc,0.019
same,glycan array binding signal (z-score),[12],-0.351
same,glycan array binding signal (z-score),[13],-0.823
same,glycan array binding signal (z-score),[14],-0.246
same,glycan array binding signal (z-score),[15],-0.153
same,glycan array binding signal (z-score),[16],-0.358
same,glycan array binding signal (z-score),Neu5Gc(a2-6)GalNAc,-0.314
same,glycan array binding signal (z-score),[17],0.201
same,glycan array binding signal (z-score),[18],-0.431
same,glycan array binding signal (z-score),[19],-0.804
same,glycan array binding signal (z-score),[20],0.061
same,glycan array binding signal (z-score),[21],-0.207

# Source: the supplement of paper PMC8728848
